Test results taken from patent publication US20230017786A1, “DEXTR[…] A DISEASE-MODIFYING TREATMENT FOR NEUROPSYCHIATRIC DISORDERS AND DISEASES” (priority 2020, published 2023).

Key:
BDNF plasma levels = assay: Plasma BDNF in normal volunteers treated with dextromethadone; format: in vivo, human; details: for BDNF plasma levels: normal volunteers
[1] = Study B, embryo fetal development in rats with toxicokinetic evaluation; details: female, Sprague-Dawley, rat, in vivo
patients with MDD = assay: Phase 2a study in MDD, efficacy (MADRS, SDQ, CGI) and sub-analyses by BMI and chronicity; details: for SDQ effect size d: Day 14
[2] = 25 mg, % life-years above 23%, N = 7
[3] = 25 mg, % life-years from start of MDD 23% and below, N = 12
[4] = 25 mg, BMI above median 28.6, N = 7
[5] = 25 mg, BMI below median 28.6, N = 12
[6] = 50 mg, % life-years 23% and below, N = 8
[7] = 50 mg, % life-years above 23%, N = 13
[8] = 50 mg, BMI above median 28.6, N = 11
[9] = 50 mg, BMI below median 28.6, N = 10
[10] = 25 + 50 mg, % life-years 23% and below, N = 20
[11] = 25 + 50 mg, % life-years above 23%, N = 20

CCC(=O)C(C[C@H](C)N(C)C)(c1ccccc1)c1ccccc1 [Dextromethadone, dextromethadone]
tested Asian subjects with increase in plasma BDNF (BDNF plasma levels; N=2, compared to placebo): 100%
BDNF plasma levels (BDNF plasma levels; 25 mg): strongly statistically increase in BDNF
BDNF plasma levels (BDNF plasma levels; 50 and 75 mg): but not in subjects treated with 50 and 75 mg
AUC(0-t) ([1]; oral, 40 mg/kg/day): 9920 ng·h/mL
Cmax ([1]; oral, 40 mg/kg/day): 738 ng/mL
NOAEL ([1]; po): 40 mg/kg/day
first appearance of improvement on MADRS (patients with MDD; 25 mg group): Day 2
MADRS change (patients with MDD; 25 mg group, day 7): 17.4
MADRS change (patients with MDD; 25 mg group, day 14): 16.8
MADRS mean CFB Day 7 (patients with MDD; [2]): −13.14
MADRS mean CFB Day 14 (patients with MDD; [2]): −11.4
MADRS mean CFB Day 7 (patients with MDD; [3]): −18.91
MADRS mean CFB Day 14 (patients with MDD; [3]): −18.54
MADRS CFB day 7 (patients with MDD; 25 mg, BMI NL, N = 4): 21.75
MADRS CFB day 14 (patients with MDD; 25 mg, BMI NL, N = 4): 15.6
MADRS CFB day 7 (patients with MDD; 25 mg, BMI OB, N = 3): 8.6
MADRS CFB day 14 (patients with MDD; 25 mg, BMI OB, N = 3): 7.6
MADRS CFB day 7 (patients with MDD; 25 mg, BMI OW, N = 12): 16.91
MADRS CFB day 14 (patients with MDD; 25 mg, BMI OW, N = 12): 17.8
MADRS CFB day 7 (patients with MDD; [4]): 13.3
MADRS CFB day 14 (patients with MDD; [4]): 13.4
MADRS CFB day 7 (patients with MDD; [5]): 19.6
MADRS CFB day 14 (patients with MDD; [5]): 17.6
SDQ effect size d (patients with MDD; 25 mg): 0.9
MADRS mean CFB Day 7 (patients with MDD; [6]): −20
MADRS mean CFB Day 14 (patients with MDD; [6]): −21.5
MADRS mean CFB Day 7 (patients with MDD; [7]): −14.46
MADRS mean CFB Day 14 (patients with MDD; [7]): −15.9
MADRS CFB day 7 (patients with MDD; 50 mg, BMI NL, N = 6): 19.5
MADRS CFB day 14 (patients with MDD; 50 mg, BMI NL, N = 6): 24.75
MADRS CFB day 7 (patients with MDD; 50 mg, BMI OB, N = 8): 15.7
MADRS CFB day 14 (patients with MDD; 50 mg, BMI OB, N = 8): 21.1
MADRS CFB day 7 (patients with MDD; 50 mg, BMI OW, N = 7): 15.3
MADRS CFB day 14 (patients with MDD; 50 mg, BMI OW, N = 7): 12
MADRS CFB day 7 (patients with MDD; [8]): 16.7
MADRS CFB day 14 (patients with MDD; [8]): 20.8
MADRS CFB day 7 (patients with MDD; [9]): 16.6
MADRS CFB day 14 (patients with MDD; [9]): 15.4
SDQ effect size d (patients with MDD; 50 mg): 1.1
persistence of efficacy after abrupt discontinuation (patients with MDD; 1-week treatment course): at least one week
MADRS mean CFB Day 7 (patients with MDD; [10]): −19.35
MADRS mean CFB Day 14 (patients with MDD; [10]): −19.78
MADRS mean CFB Day 7 (patients with MDD; [11]): −14
MADRS mean CFB Day 14 (patients with MDD; [11]): −14.4
MADRS effect size vs placebo (patients with MDD; 25 and 50 mg, Day 4 to Day 14): 0.7-1.0
first statistically significant improvement on MADRS (patients with MDD; both dose groups): day 4
magnitude of the response on MADRS (patients with MDD; placebo response −7.4): −17.8 points on MADRS
remission of disease (MADRS score of 10 or less), patients (patients with MDD; within the first week of treatment, placebo 5%): over 30%
